Values joined by “and” are separate entries in the source; they are usually repeats but may differ in a detail not shown here. Identical values can stand only once. Some of the results follow. Further columns of the screen follow, without active or inactive calls.
Legend:
Assay in all cases: Primary Screen for Target Class Profiling of Small Molecule Inhibitors of Methyltransferases
[1] = target: Glycine N-methyltransferase (Homo sapiens) (UniProt Q14749); conditions: purified enzyme, MTase-Glo SAH luminescence; measured here: GNMT inhibition; at 40 µM; stronger effect = lower value
Summary of the method: (§1)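 Each enzyme was assayed with SAM and its substrate. SAH formation detected by MTase-Glo luminescence; single-point 40 uM screen[…].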

[2] = target: Guanidinoacetate N-methyltransferase (Homo sapiens) (UniProt Q14353); conditions: purified enzyme, MTase-Glo SAH luminescence; measured here: GAMT inhibition; at 40 µM; stronger effect = lower value
Summary of the method: as §1

[3] = target: Histamine N-methyltransferase (Homo sapiens) (UniProt P50135); conditions: purified enzyme, MTase-Glo SAH luminescence; measured here: HNMT inhibition; at 40 µM; stronger effect = lower value
Summary of the method: as §1

[4] = target: Nicotinamide N-methyltransferase (Homo sapiens) (UniProt P40261); conditions: purified enzyme, MTase-Glo SAH luminescence; measured here: NNMT inhibition; at 40 µM; stronger effect = lower value
Summary of the method: as §1

[5] = target: Phenylethanolamine N-methyltransferase (Homo sapiens) (UniProt P11086); conditions: purified enzyme, MTase-Glo SAH luminescence; measured here: PNMT inhibition; at 40 µM; stronger effect = lower value
Summary of the method: as §1
% is scaled to controls: 0 for no effect and ±100 for the full control effect.

Structure (SMILES) | activity change, negative = inhibition [1] | activity change, negative = inhibition [2] | activity change, negative = inhibition [3] | activity change, negative = inhibition [4] | activity change, negative = inhibition [5]
CCOC(=O)c1cc2n(n1)CC(C)(C(=O)NC1CCCCC1)N(Cc1ccc(OC)cc1)C2=O (configuration not stated) | -3.33% | -0.87% | -8.84% | -0.923% | -3.16%
CCN1CCN(c2ccc(Nc3cc(N(C)C(=O)Nc4c(Cl)c(OC)cc(OC)c4Cl)ncn3)cc2)CC1 | -7.3% | -3.85% | -26.7% | -36.3% | -1.9%
O=C1CN(Cc2ccc(-c3cc(F)cc(F)c3)cc2)CCN1c1cc(Cl)ncn1 | -3.12% | 2.1% | -1.47% | -4.1% | -3.87%
CCCCOc1ccc(-c2cncc(C(=O)NCc3cccnc3N3CCOCC3)c2)cc1Cl | -0.209% | 17.6% | 4.69% | -4.55% | -0.962%
CC(C)CC(=O)O[C@@H]1OC=C(CO[C@@H]2O[C@H](CO[C@@H]3O[C@H](CO)[C@@H](O)[C@H](O)[C@H]3O)[C@@H](O)[C@H](O)[C@H]2O)[C@H]2C[C@H](O)[C@@H](CO)[C@@H]12 | 0% | 4.22% | 10% | -6.88% | 2.22%
CCCCN1C(=O)c2cc(C(=O)Nc3cccc(C(=O)OCC)c3)nn2CC1(C)C(=O)NC1CCCC1 (configuration not stated) | -3.54% | 0% | -9.94% | -9.02% | -0.856%
COc1ccccc1CC(C(=O)O)N(C)C(=O)c1ccccc1 (configuration not stated) | 0.46% | -4.57% | 5.12% | -12.2% | -8.67%
C=CCn1c(=O)c2ccc(C(=O)NC(C)C)cc2n2c(=O)n(CC(=O)NC3CCCCC3)nc12 | 8.09% | 2.55% | 14.3% | 7.49% | 9.57%
COc1ccccc1OCCNC(=O)c1ccc2c(c1)N(C)C1CCCCN1C2=O (configuration not stated) | -17.1% | -10.3% | -10.9% | -20.2% | -9.43%
COc1ccc(-c2cc3n(n2)CC(C)(C(=O)NCc2ccccc2)N(Cc2ccc(OC)cc2OC)C3=O)cc1 (configuration not stated) | 6.76% | 0% | 9.15% | 2.95% | 3.19%
COCCN1C(=O)c2cc3sccc3n2CC1(C)C(=O)NC1CCCCC1 (configuration not stated) | 3.99% | 4.52% | 8.55% | 4.02% | 3.32%
COc1ccccc1CC(=O)N1CCC2(CC1)N=C(c1ccc(C)cc1)NO2 | -0.499% | 2.45% | -0.288% | 1.33% | 3.95%
C=C(C)C(=O)O[C@H]1C[C@@](C)(O)C2(O)CCC(C)(/C=C3/OC(=O)C(COC)=C31)O2 (some centres not stated) | 0% | 5.96% | 9.49% | -6.42% | 3.51%
CCOc1ccccc1NC(=O)N1Cc2c(sc3c2CCCC3)-n2cccc2C1c1cc(F)cc(F)c1 (configuration not stated) | -4.14% | 0.688% | 0.702% | -8.6% | 1.29%
Cc1ccc(NS(=O)(=O)c2ccc3[nH]c4c(c3c2)CCCC4)c(Cl)c1 | 1.22% | 5.87% | 3.37% | -3.27% | 1.67%
CC[C@@]1(O)CCN(C(=O)c2ccc(CSc3ccccc3)o2)C[C@H]1O | -4.72% | -5.51% | -0.854% | -11% | -4.96%
Oc1cc(O)cc(/C=C/c2ccc(O)c(O)c2)c1 | -55.6% | -4.23% | -13.5% | -14.6% | -8.59%
COc1ccc(OC)c(CNC(=O)Cn2ccc3cc(S(=O)(=O)N4CCCC4)ccc32)c1 | 1.67% | 2.77% | -6.99% | -1.17% | 2.69%
NC(=O)c1cnc(N[C@@H]2CCCC[C@H]2N)nc1Nc1cccc(-n2nccn2)c1 | -9.04% |  | -14.6% |  | 
O=C(NC1CCCCC1)O[C@@H]1CO[C@H]2[C@@H]1OC[C@@H]2n1nnnc1-c1ccc2c(c1)OCCO2 | -3.69% | -3.43% | -0.059% | -9.07% | -4.25%

Structure (SMILES) | activity change, negative = inhibition [1] | activity change, negative = inhibition [2] | activity change, negative = inhibition [3] | activity change, negative = inhibition [4] | activity change, negative = inhibition [5]
COc1ccccc1CCNC(=O)Cn1ccc2cc(S(=O)(=O)N3CCC(C)CC3)ccc21 | -0.15% | 4.84% | -3.84% | -1.56% | 0.291%
CCCn1c(=O)c2ccc(C(=O)NC(C)C)cc2n2c(SCC(=O)Nc3cc(F)ccc3F)nnc12 | -2.62% | 1.84% | 4.16% | -0.61% | 2.09%
Nc1nnc(-c2cccc(Cl)c2Cl)c(N)n1 | 5.72% | 10% | 5.11% | -2.71% | 7.2%
Cc1cccc(C(=O)N2CCCCCCN(C)C(=O)[C@@H]3CCC[C@@H]32)c1 | -3.26% | -14% | -3.26% | -17.1% | -23.5%
CC(=O)NC(C(=O)OC1CCC(C)(C)C2CC=C3C(=O)OCC3(O)C12C)C(C)C (configuration not stated) | 0% | -14% | -1.55% | -23.2% | -1.82%
CCCN1C(=O)c2cc(C(=O)N3CCN(C4CCCCC4)CC3)nn2CC1(C)C(=O)NC1CCCC1 (configuration not stated) | -6.85% | -3.09% | -1.87% | -7.73% | -5.21%
CN(Cc1ccno1)Cc1cn(C)nc1-c1ccc(C2CCCCC2)cc1 | 1.28% | 1.68% | 3.86% | -6.82% | 15.2%
CC[C@@]1(O)C(=O)OCc2c1cc1n(c2=O)Cc2cc3c(CN(C)C)c(O)ccc3nc2-1 | -59.8% and -1.29% | -8.38% and 3.82% | -12.9% and -9.62% | -11.9% and -10.8% | -45% and -2.45%
CCCn1c(=O)c2ccc(C(=O)NC(C)CC)cc2n2c(SCC(=O)Nc3ccc(F)cc3)nnc12 (configuration not stated) | 0.517% | 1.77% | 8.91% | -3.56% | 3.04%
COc1cccc(CN[C@H]2[C@H](O)[C@H](O)C[C@@H]2c2ccc(N3CCOCC3)nc2)c1 | -3.73% | -1.32% | -0.293% | -10.8% | -3.64%
CN1CCCCCCN(C(=O)c2cc(CN3CCOCC3)on2)[C@H]2CCC[C@H]2C1=O | -3.36% | -21.8% | -3.08% | -18.5% | -4.23%
O=C(Cn1c(=O)n2nc(-c3ccccc3)nc2c2ccccc21)N1CCN(c2ccc(F)cc2)CC1 | 12.2% | 0.505% | 11.2% | 8.33% | 2.86%
CCc1ccc(NC(=O)Cn2nc3n(Cc4ccccc4)c(=O)c4ccccc4n3c2=O)cc1 | -2.51% | 2.76% | 0.246% | 1.52% | -1.44%
COC(=O)C1(C)c2[nH]c3ccccc3c2CCN1C(=O)CCl (configuration not stated) | -5.52% | -9.4% | 12.6% | -9.96% | 5.02%
C=C1CCc2occ(C)c2[C@H]2[C@H]1[C@@]13O[C@@]1(C[C@@H](C)[C@H]3OC(C)=O)[C@H]1O[C@@]21C | 0.48% | -2.92% | 8.43% | -13.7% | 3.84%
COc1ccc(C(=O)Cn2nc3n(CC(C)C)c(=O)c4ccc(C(=O)NCC(C)C)cc4n3c2=O)cc1 | 5.52% | 2.63% | 5.55% | 6.5% | 5.56%
CC(=O)OC/C(=C/C(=O)O)CC[C@@H]1C(C)=CC(=O)[C@@H]2C(C)(C)CCC[C@@]12C | -4.38% | -3.84% | 3.18% | -12.6% | 0.389%
COc1cccc(CN2C(=O)CSc3c(c4ccccc4n3C)C2C(=O)NCCC(C)C)c1 (configuration not stated) | 3.95% | 5.95% | -2.65% | -6.48% | 0.605%
CC1=CC(=O)CC(C)(C)C1(O)CCC(C)O (configuration not stated) | 2.13% | 7.94% | 9.54% | -7.7% | 8.34%
C=C1CCC[C@]2(C)CC[C@@](O)(C(=C)C(=O)O)C[C@@H]12 | -11.6% | -12.7% | -3.59% | -24.6% | -20.4%

Structure (SMILES) | activity change, negative = inhibition [1] | activity change, negative = inhibition [2] | activity change, negative = inhibition [3] | activity change, negative = inhibition [4] | activity change, negative = inhibition [5]
CCOCCCNC(=O)C1c2c(n(C)c3ccccc23)SCC(=O)N1c1ccccc1CC (configuration not stated) | 12.2% | 1.89% | 7.37% | 8.97% | 9.33%
O=C1CCCCC(C(=O)N2CCOCC2)N1 (configuration not stated) | -0.32% | 1.97% | 1.87% | -1.64% | -0.296%
O=C1CC(c2noc(COc3ccccc3)n2)CN1C1CCCCC1 (configuration not stated) | -0.396% | 0.769% | 1.7% | -3.24% | 1.99%
CC1CC(=O)C2=C(O1)OC1(C)CCC3C(C)(C)C=CC(=O)C3(C)C1C2 (configuration not stated) | -7.55% | -8.59% | 5.98% | -95.6% | -2.38%
CN(c1cc(=O)c2ccnc(-c3cncnc3)c2o1)C1CCOCC1 | -1.17% | 0.818% | 0.18% | -0.017% | 4.52%
CCCN1C(=O)c2ccccc2CC1(C)C(=O)NC1CCCCCC1 (configuration not stated) | -2.66% | 4.57% | 7.28% | 8.44% | 0.626%
C=Cc1ccc(Cn2nc3n(CC(C)C)c(=O)c4ccc(C(=O)NCC(C)C)cc4n3c2=O)cc1 | 4.14% | 1.59% | 3.6% | 1.98% | 4.22%
CN(C)C(=O)c1cc2cnc(Nc3ccc(N4CCNCC4)cn3)nc2n1C1CCCC1 | 1.35% | 2.81% | -3.85% | -46.8% | -8.25%
CC(C)CC1NC(=O)C2CC3(O)c4ccccc4NC3N2C1=O (configuration not stated) | -0.849% | -0.186% | 7.67% | -13.6% | -5.39%
CCCn1c(=O)c2ccccc2n2c(SCC(=O)NCc3ccc(Cl)cc3)nnc12 | -1.92% | 2.02% | 6.63% | -3.72% | 0.704%
CC1(C(=O)NC2CCCCCC2)Cn2nc(-c3cccs3)cc2C(=O)N1c1ccccc1F (configuration not stated) | 3.73% | 1.44% | 10.2% | 12% | 4.8%
CCCC1(CO)CCCN(CC(=O)NC(C)(C)CC)C1 (configuration not stated) | -4.24% | -4.49% | -1.59% | -7.78% | -5.14%
O=C(NCc1cc2n(n1)CCCNC2)c1ccc(Cn2cnnn2)cc1 | -2.42% | 4.21% | -0.187% | -2.44% | 11.9%
CCCNc1ccc2ncc(-c3ccc4[nH]ncc4c3)n2n1 | -70.3% | -33.8% | -75.2% | -40.5% | -48.7%
C=C1[C@H](CO)[C@@H](O)C[C@@H]1n1cnc2c(=O)[nH]c(N)nc21 | 7.08% | 3.9% | 5.54% | -8.41% | 1.77%
CN(C)CCN1CC2(CCN(C(=O)CCCS(N)(=O)=O)CC2)OC1=O | -1.31% | -5.81% | 0.164% | -1.25% | -3.67%
Cc1ccc(Cn2nc3n(C(C)C)c(=O)c4ccc(C(=O)NC5CCCCC5)cc4n3c2=O)cc1 | 5.99% | 0% | 11% | 5.04% | 5.68%
CC(C)(O)C(O)C(=O)OCc1ccc(O[C@@H]2O[C@H](CO)[C@@H](O)[C@H](O)[C@H]2O)cc1 (some centres not stated) | -0.315% | 1.83% | 3.51% | -9.65% | 3.53%
CN(Cc1ccccc1)Cc1cn([C@H]2CO[C@H]3[C@@H]2OC[C@@H]3NCc2ccccc2)nn1 | -22.8% | -19.6% | 2.33% | -4% | -19%
COC(=O)c1cc2n(n1)CC(C)(C(=O)NC1CCC(C)CC1)N(Cc1ccccc1)C2=O (configuration not stated) | 0.864% | 4.74% | 3.74% | -4.73% | 1.59%

From PubChem BioAssay AID1745853 (National Center for Advancing Translational Sciences (NCATS), 2022)
